Data on 83 variants can be found in the RNAGym collection of RNA variant scans (doi:10.1093/nar/gkz1192).

The source gives no read counts; variants with many changes may rest on few reads.

The chains are these.
B1: CPEB3 Ribozyme (parent)
chain: UAACAGGGGGCCACAGCAGAAGCGUUCACGUCGCAGCCCCUGUCAGAUUCUGGUGAAUCUGCGAAUUCUGCUGUAUAUCUC

In this data set the parent is B1. Description: self-cleavage, relative activity (ratio to wild type); higher = more cleavage; in vitro, sequencing. In a few lines: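 After error-prone PCR and barcoding, CPEB3 ribozyme mutant libraries were transcribed with T7 RNA polymerase at 37°C for 5 hours, then given 15 min with DNase I before an EDTA stop, and they cleaved during both steps. Reverse transcription with template switching preceded Illumina sequencing. Relative activity divides a variant's cleaved/total read fraction by the unmutated ribozyme's. At least 5 reads were required per variant, and three batches were averaged.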
In the case of U41A A45G A57U U60A U76C U80A, the self-cleavage came out at 0.06.
To U41A U48C U58C belongs 0.1; to C39U A64G U76C, 0.49.
To C37A U48C G61U belongs 0.4; to C40U U51G U60C U67C, 0.17; to U41A A56G A64G A77G, 0.07.
For A35U U41A U43A A57G A77G, the self-cleavage was found to be 0.14.
For G36C C50A U60A U69C the value was 0.09; for G36A A64U U78C, 0.32; for C38G U54A U76C, 0.13.
To C38G U60A U80G belongs 0.04.
Take U41A U54C U58C U60A U67A: the self-cleavage worked out at 0.13.
For C38U C50A G63U U69C the value was 0.08; for A35U U49C G61U U69C U72C A75G, 0.08; for C38G A56G C62U U76C, 0.06.
To A35U U41C U43G A56G A77G belongs 0.11; to C39U A45G U48C U69A, 0.07; to G36A C44G C50A A65U U74C, 0.11.
For A35U U43A U51C U78A the value was 0.18.
In the case of C38G U43C U69C, the self-cleavage was 0.11.
For A35U U54C U78C the value was 0.45; for C38A U41C U54C A56G U67A U72A, 0.15.
For C40A A57G A77U the value was 0.18; for U41A A64G A75U, 0.31.
For C40A U41G U48C A57G U60C U67C U76C the value was 0.05; for A35U A45U U69A U80A, 0.1; for U41A U54C A64U G73A, 0.47.
G36U A64C U78C: the self-cleavage stood at 0.1.
To U41A A56U U67A C71U belongs 0.05.
For U41A A56G U60C U69C the value was 0.07; for U41A U43A A57G, 0.09.
Consider A35U U43C U58C, for which the self-cleavage was determined as 0.15.
For A35U U51A U72A the value was 0.24; for C37U A56G U78C, 0.45; for G36U U69C A75G, 0.1.
For A35G U69A U74A the value was 0.89; for C40U A45G U67C, 0.28; for A35U U58A C62G, 0.13.
To A35U U41G U49C U54A A56U A64U U69A belongs 0.14; to C39U U48A U60C U67C U72A, 0.12.
Consider C39A A45G A56G A65G, for which the self-cleavage turned out to be 0.17.
To C39U C62U G73A U80A belongs 0.1.
Regarding C40U U49C U72C C79U, the self-cleavage turned out to be 0.22.
With U41C A56G U60A U80C, the self-cleavage was 0.34.
To A35U U41C U58C belongs 0.34.
To A35U A47G A65G U72A belongs 0.2; to C38U A47U A57G U69C, 0.12.
With C38U U43C U76C, the self-cleavage came to 0.42.
To U41A U58A A64G U67C belongs 0.23; to A35U A45G U48C A64G, 0.07; to C40U G70A U72A, 0.19.
Take A35G U54C U69C U80C: the self-cleavage was found to be 0.96.
For A35G U43C A45G A47G G52A U67A the value was 0.4; for A35U A57G U66C U69A U80A, 0.09; for A35G U43C U60C, 0.46.
Turning to U41C A56C U69C, the self-cleavage was 0.19.
For U41C A45G U54C A56G C59U A65C U72A the value was 0; for U41C A47G U54C A56G, 0.32; for C37U U43G A56G A57G U60C U72A, 0.06.
As for U41A U76A U80C, the self-cleavage stood at 0.2.
To C40U A65G U66C belongs 0.14; to C40A A57C C59U U69C, 0.07.
For A35U A47G U54C the value was 0.42.
On to A35U A45G U48C, for which the self-cleavage stood at 0.05.
For A35G U43C G52A A64G U80A the value was 1.26; for A35G U54A U74A, 1.31.
Take U41C A64G U69C U80C: the self-cleavage came to 0.34.
With A35U U41A A45G U54C, the self-cleavage turned out to be 0.17.
To A35U U51A A56U belongs 0.29; to G36U U41A A75G, 0.07.
For G36U U41A A75U the value was 0.14.
U41A U43C U74C: the self-cleavage was 0.22.
To U41A U54A U67C U69C A75U belongs 0.11; to U41A C59A A65G U69A U80A, 0.06; to A35U G55U U58C, 0.15.
To C38U A47G U67C belongs 0.15; to C40A U58C U60C U76A, 0.23.
To C37U U60G U72C belongs 0.14; to A35U A47G U72C A77G, 0.43; to A35U U43C U51C G52U A64G U80G, 0.16.
As for C40U U49C A65G A77G, the self-cleavage is 0.1.
For U41A A45G U60C the value was 0.33; for A35U U48C U49C U54C, 0.08.
